The results in this text go back to ChEMBL document CHEMBL1201862, “PubChem BioAssay data set” (2004).

SMILES strings stand for the structures.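 Five compound concentrations were applied to cells in 96-well plates for 48 hours; endpoints were derived by simple linear interpolation of the resulting dose-response curve. GI50 marks 50% less growth.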 The source made the active and inactive calls. No stated cut-off is given here; in the data, active = GI50 up to about 1.1 µM and inactive = higher.

For the experiment, the system named is NCI-H322M. In words: inhibition of tumour cell growth, NCI panel, 48 h.
As to `O=C(NC1(C(=O)O)CCCC1)c1ccccc1`, the GI50 is inactive: > 100 µM. For `NC1=NC(c2ccc(Cl)cc2)N(c2ccc(S(N)(=O)=O)cc2)C(N)=N1` (stereo unspecified), the GI50 was inactive: > 100 µM. For the compound `CC(C)(C)C1C=C(Sc2ccccc2)C(=O)O1` (stereo unspecified), the GI50 is inactive: > 100 µM. Consider `O=C(Cc1ccccc1)N/N=C1\C(=O)Nc2ccccc21`, for which the GI50 was inactive: > 100 µM. For the compound `COc1ccc(OC)c(C(Cc2ccnc3ccccc23)Cc2ccnc3ccccc23)c1`, the GI50 was inactive: > 10 µM. As to `COc1ccc(CC2OC3(CCCCC3)CC3CCCCN32)cc1` (stereo unspecified), the GI50 was inactive: > 100 µM. For `CCOC(=O)[C@H]1O[C@@H]1C(=O)NC(CC(C)C)C(=O)NCCC(C)C` (stereo partly specified), the GI50 was inactive: > 100 µM. The value for `O=C(c1nc2ccc(Cl)cc2[nH]c1=O)C(O)c1cccc([N+](=O)[O-])c1` (stereo unspecified) was inactive: > 100 µM; that for `S=c1nc(Nc2ccccc2)c2c3c(sc2[nH]1)CCCC3` was inactive: > 100 µM. For the compound `COc1ccc(C2=CC3CCC2C3)cc1` (stereo unspecified), the GI50 is inactive: > 100 µM. Take `CCC1=CCN(c2ccc(C)cc2)OC1c1ccc(OC)cc1` (stereo unspecified): the GI50 was inactive: > 100 µM. As for `C=CCNC(=S)N/C=C1\C(=O)Oc2ccccc2C1=O`, the GI50 is inactive: 50.6 µM. The value for `O=C(c1ccccc1)c1ccc(C(c2c(O)c3ccccc3oc2=O)c2c(O)c3ccccc3oc2=O)cc1` was inactive: 20.7 µM.

Regarding `Cc1ccccc1C1CC(=O)CC(c2ccccc2C)C12C(=O)NC(=S)NC2=O` (stereo unspecified), the GI50 is inactive: 29.6 µM. Consider `CC(C)C1CNC2N1C(=O)C2(C)OCc1ccccc1` (stereo unspecified), for which the GI50 was inactive: > 100 µM. For the compound `CSc1ccc(NC(=O)CCl)cc1`, the GI50 was inactive: > 10 µM. The figure for `CC1(C)OC2OC(COC(=O)C(c3ccccc3)c3ccccc3)C3OC(C)(C)OC3C2O1` (stereo unspecified) is inactive: 61.4 µM; for `c1csc(-c2ccc(-c3ccc(-c4ccc(-c5cccs5)s4)s3)s2)c1` it is inactive: > 100 µM; for `O=C(NCCc1ccccc1)C1C(=O)C(=O)N(CCc2ccccc2)C1=O` (stereo unspecified) it is inactive: > 100 µM. With `COC(=O)C(CC(=O)c1cc2c(cc1I)OCO2)Cc1cc(OC)c(OC)c(OC)c1I` (stereo unspecified), the GI50 was inactive: > 100 µM.

For the compound `CC1CC(c2ccc(Cl)c(Cl)c2)=Nc2ccccc2S1` (stereo unspecified), the GI50 was inactive: > 100 µM.

With `C/C(CC(=O)Nc1ccc(Cl)c(Cl)c1)=N/NC(=O)C[n+]1ccccc1`, the GI50 was inactive: > 100 µM. `CCC(=O)NC(NNS(=O)(=O)c1ccc(C)cc1)(C(F)(F)F)C(F)(F)F`: the GI50 is inactive: > 100 µM. In the case of `C=CCC(CC=O)(C(=O)OCC)C(=O)OCC`, the GI50 was inactive: > 100 µM. The value for `COc1cccc2c1CCc1c(-c3ccc(F)cc3)cc(-c3ccc4ccccc4n3)nc1-2` was inactive: > 100 µM.

`Cc1ccc(NC(=O)/C=C/c2ccccc2)c(C)c1`: the GI50 was inactive: > 100 µM.

Take `O=C(O)COc1cccc2ccccc(=O)c12`: the GI50 is inactive: > 100 µM.

In the case of `OC1c2ccccc2[C@@H]2[C@H]1[C@@H](c1ccccc1)C1(Cc3ccccc3C1O)[C@H]2c1ccccc1` (stereo partly specified), the GI50 is inactive: 9.64 µM. In the case of `COC(=O)C1=C(OC(=O)c2ccccc2)C(C(=O)OC)[C@]2(O)[C@@H](C(=O)OC)[C@H]1C[C@@H](c1ccccc1)[C@@H]2C(=O)OC` (stereo partly specified), the GI50 is inactive: 17.2 µM. Take `Cc1ccc(S(=O)(=O)NC2C(=O)c3ccccc3C(=O)C2n2ccnc2)cc1` (stereo unspecified): the GI50 was inactive: 14.7 µM. As for `CC(C)(O)C1COC2=C1C(=O)c1ccccc1C2=O` (stereo unspecified), the GI50 is inactive: > 100 µM. The figure for `CCCn1c(=O)c(N2CCN(c3ccccc3)CC2)nc2sc3ccccc3c21` is inactive: > 100 µM; for `NC(CCCNCc1ccccc1O)C(=O)O` (stereo unspecified) it is inactive: > 100 µM; for `COc1ccc(NC(=O)CC/C(CC(=O)c2ccco2)=N/NC(N)=S)cc1` it is inactive: > 100 µM.

As for `C[n+]1c2ccccc2c(NC(CCCNC(=N)N)C(=O)O)c2ccccc21` (stereo unspecified), the GI50 was inactive: > 100 µM. For the compound `[O-]/N=[N+](/[O-])C1CCCCC1=[N+]1CCOCC1` (stereo unspecified), the GI50 was inactive: > 100 µM.

For `CC1CC/C(=C\c2ccc(Cl)cc2)C2OC(N)=C(C#N)C(c3ccc(Cl)cc3)=C12` (stereo unspecified), the GI50 was inactive: 12.7 µM.

Take `COc1ccc(/C=C/C(=O)c2cc(OC)cc(OC)c2)cc1`: the GI50 is inactive: 5.98 µM.

For `COC(=O)C(Cc1c[nH]c2ccccc12)NC(=O)c1ccc(-c2ccc(Cl)cc2Cl)o1` (stereo unspecified), the GI50 is inactive: 59.4 µM.

As for `CN1C(c2ccccc2)CC(=Nc2ccccc2)CC1c1ccccc1` (stereo unspecified), the GI50 was inactive: 18.4 µM. With `COc1ccc2nc3cccc([N+](=O)[O-])c3c(NCCO)c2c1`, the GI50 is active: 0.0276 µM. Turning to `COC(=O)C(Cc1c(C2Nc3ccccc3C2CC(NC(C)=O)C(=O)OC)[nH]c2ccccc12)NC(C)=O` (stereo unspecified), the GI50 is inactive: > 100 µM. For `Cc1ccc(/N=N/c2c(O)c(C(=O)Nc3ccccc3)cc3ccccc23)c([N+](=O)[O-])c1`, the GI50 was inactive: > 100 µM. With `CN1C(=O)C(O)CC1c1cccc(C(F)(F)F)c1` (stereo unspecified), the GI50 was inactive: > 100 µM. Consider `COc1ccc2c(c1)c1c(n2CCN2CCCCC2)-c2ccccc2CC1`, for which the GI50 was inactive: 20 µM. The value for `C[N+]1(CC[N+]2(C)CCCC2c2cccnc2)CCCC1c1cccnc1` (stereo unspecified) was inactive: 18.4 µM. Consider `COc1ccc(OC)c(C2CCc3nc4nc(N)nc(N)c4cc3C2)c1` (stereo unspecified), for which the GI50 is inactive: 2.39 µM.

`CCOC(=O)NC(Nc1ncn(C(NC(=O)OCC)(C(F)(F)F)C(F)(F)F)n1)(C(F)(F)F)C(F)(F)F`: the GI50 is inactive: > 100 µM. For `C#CCOC(=O)C=[N+]=[N-]`, the GI50 is inactive: > 10 µM.

Consider `NC(=O)NNc1nc(-c2ccccc2)cs1`, for which the GI50 is inactive: > 100 µM. For `COC(=O)C1Cc2cc3c(cc2C1=O)CCCC3` (stereo unspecified), the GI50 was inactive: > 100 µM. For `Nc1nc(=O)n(C2CC(O)C(CO)O2)c2nc(-c3ccc(-c4ccccc4)cc3)cnc12` (stereo unspecified), the GI50 is inactive: 62.8 µM. `CCC1CN2CCC1CC2` (stereo unspecified): the GI50 is inactive: > 100 µM. In the case of `CN(N)/N=N/c1[nH]cnc1C(N)=O`, the GI50 was inactive: > 42.1 µM.

Regarding `Cc1cc(O)c(O)c(Oc2cc(C)cc(O)c2O)c1`, the GI50 is inactive: 22.5 µM. The value for `Cc1c2ccnc(C(F)(F)F)c2cc2c1[nH]c1ccccc12` was inactive: > 125 µM; that for `O=C(O)c1ccccc1/C=C1\Cc2ccc3c(c2C1=O)CCCC3` was inactive: 42.6 µM. For the compound `Cc1ccc(Cc2nn(C)c(=O)n2-n2cccc2)cc1`, the GI50 was inactive: > 100 µM.

As to `CSc1nc2c(nc(N)n2C2OC(CO)C(O)C(O)C2O)c(=O)n1C` (stereo unspecified), the GI50 was inactive: > 100 µM. The figure for `COC(=O)C(C/C=C(\C)c1ccc(Cl)cc1)C(C)=O` (stereo unspecified) is inactive: 97.7 µM. Regarding `NC(=O)c1ccccc1NC(=O)C(=O)C(C(=O)c1ccc2ccccc2c1)C1OC(=O)c2ccccc21` (stereo unspecified), the GI50 is inactive: 7.6 µM. As to `O=c1[nH]c(=O)n(C2OC(CO)C(O)C2O)cc1OCCCc1ccccc1` (stereo unspecified), the GI50 was inactive: > 100 µM. The value for `CC(=O)C1=C(C)N2C(=NC3=C(CCc4ccccc43)C2c2cccc(Br)c2)S1` (stereo unspecified) was inactive: > 100 µM; that for `NC1c2c(Br)sc(N3CCCC3)c2C(=O)C1O` (stereo unspecified) was inactive: > 50 µM.

`O=C1OC(c2ccccc2)(c2ccccc2)c2ccc3ccc(F)cc3c21`: the GI50 was inactive: > 100 µM. Turning to `O=C(/C=C/c1ccc2c(c1)OCO2)c1ccccc(=O)c1O`, the GI50 is inactive: 15 µM.

For the compound `Cc1ccc(C2CC(c3ccc([N+](=O)[O-])cc3)=Nc3ccccc3S2)cc1` (stereo unspecified), the GI50 is inactive: 33.5 µM. On to `Cn1c(=O)n(CC(Br)CBr)c(=O)n(CC(Br)CBr)c1=O` (stereo unspecified), for which the GI50 was inactive: 28.5 µM. As for `CC(=O)NC(CCCCN(Cc1ccccc1)C(=O)NCCCl)C(=O)NCc1ccccc1` (stereo unspecified), the GI50 was inactive: > 100 µM. On to `O=C(/C=C/c1ccccc1)N1CCCCC1`, for which the GI50 was inactive: > 100 µM.

As for `COC1(OC)N=C(N)C2(C#N)C(c3ccccc3)NC3=C(CCC3)C12C#N` (stereo unspecified), the GI50 is inactive: > 100 µM. The figure for `N#Cc1c(-c2ccc(Cl)cc2)c2c(n(C3OC(CO)C(O)C(O)C3O)c1=S)CCC2` (stereo unspecified) is inactive: 45.2 µM; for `Cc1c(CCN=P(c2ccccc2)(c2ccccc2)c2ccccc2)c(=O)n2c([nH]c3ccccc32)c1C#N` it is inactive: > 10 µM. Consider `Cn1c(=O)sc2cc(C(=S)N3CCCCC3)ccc21`, for which the GI50 was inactive: > 100 µM. As to `c1ccc(C2N3CCCCC3[C@@H]3c4[nH]c5ccccc5c4CCN23)cc1` (stereo partly specified), the GI50 was inactive: > 100 µM. As for `Cc1ncc2c(=O)c3c(oc2n1)c1ccccc1n3Cc1ccccc1`, the GI50 was inactive: > 100 µM. The figure for `C[n+]1c2ccccc2n2c3ccccc3c(NCc3ccco3)c(C#N)c21` is inactive: 2.49 µM; for `CC(=O)Nc1ccc(/C=c2\sc3nnc(-c4cccnc4)n3c2=O)cc1` it is inactive: 33.8 µM; for `C=CC(Br)(CBr)CCC1OC1(C)C` (stereo unspecified) it is inactive: 28.7 µM. `Cc1cccc(NC(=O)O/N=C(\Cl)C(C)C)c1`: the GI50 was inactive: 16.7 µM. As for `CO/C(C)=N/CCC1=CCCCC1`, the GI50 was inactive: > 100 µM.

`CC(=O)OC1(C)C=CC(=O)C=C1`: the GI50 is inactive: > 100 µM.

In the case of `O=C(Nc1cccs1)c1c(O)[nH]c(=S)[nH]c1=O`, the GI50 is inactive: > 100 µM.

On to `O=C1/C(=N\NC(=S)NC2CCCCC2)c2cc([N+](=O)[O-])ccc2N1CN1CCOCC1`, for which the GI50 is inactive: 10.2 µM. As to `CO[C@H]1[C@@H](O)[C@@H](O)O[C@@H](O[C@H]2CC[C@@]3(C)[C@H](CC[C@@H]4[C@@H]3[C@H](O)C[C@]3(C)[C@@H](C5=CC(=O)OC5)CC[C@]43O)C2)[C@@H]1O`, the GI50 was active: 0.258 µM. In the case of `C=C(CN(C)C)C(=O)c1ccc(OC)cc1`, the GI50 was inactive: 19.2 µM.
